# Laboratory results as given in article PMC4336329 (PLoS ONE, 2015).
# In all, about 310,000 compounds went through this assay and about 14,000 (4.5%) showed an effect of 50% or more. Effects have a minus sign here. This is one part of the list.
# Target: human ether-à-go-go-related gene (hERG) potassium channel (human, UniProt Q12809)
# Assay: primary screen, population patch clamp on CHO cells stably expressing hERG
# 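Also: peak tail current of the secondary pulse compared with the same well before compound.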
# Chain of human ether-à-go-go-related gene (hERG) potassium channel (Q12809 whole entry, looked up): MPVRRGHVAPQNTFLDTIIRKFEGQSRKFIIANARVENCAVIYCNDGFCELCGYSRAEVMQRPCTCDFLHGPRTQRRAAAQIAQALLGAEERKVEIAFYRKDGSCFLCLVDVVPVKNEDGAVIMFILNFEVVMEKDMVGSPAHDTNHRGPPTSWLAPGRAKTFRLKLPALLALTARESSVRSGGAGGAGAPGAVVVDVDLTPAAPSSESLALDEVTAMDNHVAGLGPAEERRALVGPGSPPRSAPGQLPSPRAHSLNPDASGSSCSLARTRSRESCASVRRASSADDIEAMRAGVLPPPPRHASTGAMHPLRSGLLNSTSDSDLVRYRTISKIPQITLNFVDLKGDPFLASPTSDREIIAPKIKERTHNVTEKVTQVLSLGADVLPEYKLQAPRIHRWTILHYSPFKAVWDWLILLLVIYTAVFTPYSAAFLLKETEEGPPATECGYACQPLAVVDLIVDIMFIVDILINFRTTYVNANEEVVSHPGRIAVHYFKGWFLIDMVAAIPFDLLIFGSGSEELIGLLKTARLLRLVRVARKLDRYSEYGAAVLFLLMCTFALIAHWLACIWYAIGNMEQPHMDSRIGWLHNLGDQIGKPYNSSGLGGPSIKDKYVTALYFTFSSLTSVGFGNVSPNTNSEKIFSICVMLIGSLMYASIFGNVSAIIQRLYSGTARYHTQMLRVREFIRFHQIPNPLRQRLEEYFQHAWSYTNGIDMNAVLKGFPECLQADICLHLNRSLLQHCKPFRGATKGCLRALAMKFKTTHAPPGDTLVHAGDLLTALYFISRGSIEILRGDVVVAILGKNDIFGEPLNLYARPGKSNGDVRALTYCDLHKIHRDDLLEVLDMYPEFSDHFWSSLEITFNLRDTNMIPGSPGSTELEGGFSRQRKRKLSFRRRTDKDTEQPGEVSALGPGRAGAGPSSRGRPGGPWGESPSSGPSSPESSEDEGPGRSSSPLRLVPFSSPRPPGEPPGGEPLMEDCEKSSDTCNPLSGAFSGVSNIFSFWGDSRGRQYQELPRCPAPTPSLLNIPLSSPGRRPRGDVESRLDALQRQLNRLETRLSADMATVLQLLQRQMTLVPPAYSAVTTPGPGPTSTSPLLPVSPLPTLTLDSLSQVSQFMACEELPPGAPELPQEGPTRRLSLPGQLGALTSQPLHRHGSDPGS
row,Compound,"hERG current change (%, negative = inhibition) at 10uM [%]"
1,COc1ccc(-n2nc(C(=O)NCCCN3CCCC3=O)c3c4ccccc4n(C)c3c2=O)cc1Cl,4.58
2,CCN(CC)S(=O)(=O)c1cccc(C(=O)Nc2nncs2)c1,1.66
3,N#C/C(=C/c1ccccc1)c1nn(CCO)c(N)c1C#N,-9.64
4,Cc1cccc(-c2noc(Cc3ccccc3)n2)c1,-11.8
5,CCn1c(SCC(=O)c2c(N)n(C3CC3)c(=O)[nH]c2=O)nc2cc(S(N)(=O)=O)ccc21,8.9
6,CC(=O)Nc1ccc(NC(=O)C(C)OC(=O)CCC(=O)c2ccc(F)cc2)cc1 (centres unmarked),-7.13
7,CCN(CC(=O)N1CCN(Cc2ccccc2)CC1)S(=O)(=O)c1ccccc1,-20.3
8,C=CCN1C(=O)C2C(C(=O)NC3CCCCC3)C3C=CC2(O3)C1C(=O)NC1CCCC1 (centres unmarked),5.46
9,O=C(O)CNC(=O)C(c1ccccc1)c1ccccc1,4.42
10,O=C(CCNC(=O)Cn1ccc2ccccc2c1=O)NCC1CCCC1c1ccccc1 (centres unmarked),16.5
11,COC(=O)c1c(C(=O)OC)c(-c2ccc(Br)cc2)n2c1CS(=O)C2 (centres unmarked),-1.16
12,Cc1ccc(C)c(N(CC(=O)NCc2ccccc2)C(=O)c2csnn2)c1,-14.7
13,CC(=O)N1CCc2cc(S(=O)(=O)NC(Cc3ccccc3)C(=O)NC3CCCCCC3)ccc21 (centres unmarked),-12.6
14,COc1ccc2oc(=N)c(C(=O)Nc3ccccc3)cc2c1,-43.5
15,O=C(c1ccc(OCC2CCCO2)cc1)N1CCc2ccccc2C1 (centres unmarked),-4.28
16,O=C(O)CCC(=O)Nc1ccc(OCC(=O)O)cc1,5.18
17,Cc1ccccc1-n1c(SCC(=O)Nc2ccccc2Cl)nc2n[nH]c(C)c2c1=N,6.44
18,O=S(=O)(/N=C/N1CCOCC1)c1ccc(Cl)cc1,6.29
19,CCC(C)N(C(=O)COC(=O)c1cc([N+](=O)[O-])ccc1N)C1CCS(=O)(=O)C1 (centres unmarked),-15.3
20,CC(C)C[C@@H]1NC(=O)[C@H](C(C)C)NC(=O)c2cc([N+](=O)[O-])cc(I)c2NCC[C@@H](C(N)=O)NC1=O,-3.38
21,COc1ccc(NC(=O)c2ccc(Br)o2)c([N+](=O)[O-])c1,6.12
22,Cc1ccc(C)c(CSc2ccc3nnc(-c4ccccn4)n3n2)c1,-76.5

row,Compound,"hERG current change (%, negative = inhibition) at 10uM [%]"
1,N#Cc1cc(Oc2ccc3ccccc3c2)c(-n2nnc3ccccc32)cc1C#N,16.5
2,COc1ccc(F)cc1S(=O)(=O)Nc1ccc(C)cc1,4.11
3,Brc1ccc(-c2cn3ccccc3n2)cc1,6.47
4,Cc1ccc(NS(=O)(=O)c2cc3c4c(c2)CC(=O)N4CCC3)cc1C,-26.7
5,CN1c2ccccc2N(C)C1(C)c1cccc2ccccc12,7.03
6,COc1cc(CC(=O)Nc2ccc3c(c2)CCC3)cc(OC)c1OC,-0.207
7,COc1cc(C(=O)/C=C/c2cccnc2)c([N+](=O)[O-])cc1OC,11.4
8,Cc1onc(-c2ccccc2Cl)c1C(=O)NCCn1ccc2ccccc21,-26.4
9,Cc1cccc(N2CCN(C(=O)C(C)C)CC2)c1C,-12
10,O=C(Nc1ccc(OC(F)F)cc1)c1cc(S(=O)(=O)N2CCCCC2)ccc1N1CCOCC1,-65.8
11,COc1cc(-c2nc(Cc3c(F)cccc3Cl)no2)cc(OC)c1OC,1.73
12,O=c1cc(-c2ccccc2)[nH]c2cc(Cl)ccc12,5.47
13,CC1(C)CC(NC(=O)c2ccncc2)CC(C)(C)N1O.Cl,14.6
14,C=C1CCC2C(C)(C)[C@@H](O)CC[C@@]2(C)[C@@H]1COc1ccc2ccc(=O)oc2c1 (some centres unmarked),28.9
15,COc1ccc(/C=C(/C(=O)NCc2ccccc2)c2ccccc2)cc1,-13.7
16,COc1ccnc(CSC(N)=Nc2ccccc2OC)c1.Cl,-44.6
17,C/C(CCC(C)C)=N\Nc1cc(C)c2ccccc2n1,-8.27
18,Nc1oc2ccccc2c1C(=O)Cc1ccccc1O[C@@H]1O[C@H](CO)[C@@H](O)[C@H](O)[C@H]1O,21.9
19,COc1cc(CNCc2ccccn2)ccc1OCc1ccc(Cl)cc1Cl.Cl,-58.1
20,COc1ccc(SC[C@H](C)CN2CC[C@H](C(C)(C)C)CCC2=O)cc1,-7.41
21,Cc1onc(-c2ccccc2Cl)c1C(=O)N(C)Cc1ccccc1,-3.37
22,COc1ccc(C(=O)COC(=O)c2cccc(-n3cnnn3)c2)c(OC)c1,12.3

row,Compound,"hERG current change (%, negative = inhibition) at 10uM [%]"
1,CCOc1ccc(S(=O)(=O)N2CCC(C(=O)NCC(=O)Nc3cccc(Cl)c3C)CC2)cc1,-23.5
2,Cc1ccc(Cn2c(C(C)Nc3nc(-c4ccc(C)cc4)cs3)nc3cc(Cl)c(Cl)cc32)cc1 (centres unmarked),-10.8
3,Cc1cc(OCc2cc(C(=O)O)oc2C)c2c3c(c(=O)oc2c1)CCCC3,4.54
4,CCOc1cc(C(=O)OCc2ccc(OC)cc2)ccc1OCC(=O)N1CCOCC1,-15.1
5,CC(C)OCCCNC1=C(Cl)C(=O)c2ccccc2C1=O,-4.77
6,COC(=O)c1c(-c2c(Cl)cccc2Cl)noc1C(=O)NN,4.26
7,Cc1ccc(NC(=O)C(C)OC(=O)Cc2c[nH]c3ccccc23)cc1S(=O)(=O)N1CCOCC1 (centres unmarked),-7.86
8,Cc1ccc(NC(=O)CN(C)CC(=O)Nc2ccc(F)c(F)c2F)c(Cl)c1,-2.02
9,O=C(O)C1=C[C@H](c2coc3ccccc3c2=O)C[C@H](OCc2ccc(CO)cc2)O1,3.58
10,CCOC(=O)c1cc(-c2ccc3c(c2)OCCO3)n[nH]1,20.3
11,Brc1ccc(-c2csc3[n+]2CCCCC3)cc1.[Br-],-6.25
12,Cc1cc(Nc2ccccc2)nc2cc(O)ccc12,-11.5
13,CC(=O)N1c2ccc(S(=O)(=O)N3CCCC3)cc2CC1C(=O)NCc1ccc(N(C)C)cc1 (centres unmarked),-3.65
14,CC(=O)Nc1ccc(Oc2ccc([N+](=O)[O-])cc2Cl)cc1,-44.6
15,COC(=O)c1cc(S(=O)(=O)N2c3ccccc3CC2C)cn1C (centres unmarked),8.19
16,CC1=C(C(=O)NCCN2CCOCC2)C2(CCC(C)CC2)OC1=O (centres unmarked),14.9
17,CCOC(=O)N1CCN(S(=O)(=O)CCNC(=O)c2ccccc2)CC1,16.8
18,CCO/N=C/c1ccc(OC)c(Oc2nc(OC)cc(OC)n2)c1,-5.71
19,Cc1cc(NC(=O)c2cc(-c3ccc(OC(C)C)cc3)nc3ccccc23)no1,22.7
20,COc1cccc(/C(O)=C2/C(=O)C(=O)N(CCN3CCOCC3)C2c2cccs2)c1 (centres unmarked),3.96
21,COC(=O)C1CC(c2ccc(Cl)cc2)=NO1 (centres unmarked),-4.69
22,CC(=O)c1ccc(O)c(CSc2nncn2C)c1,-0.576

row,Compound,"hERG current change (%, negative = inhibition) at 10uM [%]"
1,COc1ccc(NC(=O)c2ccc(NC(=O)c3cccs3)cc2)cc1,11.2
2,COc1ccc(F)cc1C1=CC(=O)C[C@H](c2ccc3c(c2)OCO3)C1,9.36
3,CCC(=O)OC1CSc2nc3ccccc3n2C1 (centres unmarked),-12.3
4,O=C(CCN1C(=O)COc2ccccc21)NCCN1CCN(c2cccc(Cl)c2)CC1,-56.5
5,Cc1cc(C)cc(N2CC(c3nc4ccccc4n3C)CC2=O)c1 (centres unmarked),-10.8
6,Clc1ccc(-c2nc(-c3cc4cc(Cl)ccc4o3)cs2)cc1,4.59
7,CN1CCc2nc(SCc3ccc(Cl)cc3)c(C#N)c(-c3cccs3)c2C1,-66.2
8,CNc1oc(-c2cccc3ccccc23)nc1C#N,-0.799
9,COc1ccc(/C(C#N)=C/c2ccccn2)cc1,4.95
10,S=c1nc(-c2ccco2)[nH][nH]1,19.1
11,COc1ccc(Cc2nc3ccc(S(=O)(=O)N4CCOCC4)cc3[nH]2)cc1,-6.24
12,CCCCCc1cc(=O)oc2c(C(CCN3CCCC3)c3cc(OC)c(OC)c(OC)c3)c(OC)cc(OC)c12 (centres unmarked),-65.6
13,O=[N+]([O-])c1ccc(N(CC(O)CN2CCCCC2)S(=O)(=O)c2ccccc2)cc1 (centres unmarked),-74
14,COC(=O)c1cccc(Cn2c(Cl)c(/C=N/NC(=O)c3ccccc3Cl)sc2=O)c1,-9.46
15,CCOC(=O)c1c(C)nc2ccc(Cl)cc2c1-c1ccccc1,6.84
16,O=C(COc1ccccc1[N+](=O)[O-])Nc1ccccc1N1CCCC1,-29.1
17,CCCOc1ccc(/C=c2\sc3ncnn3c2=O)cc1,6.61
18,CCn1cc(C(=O)NCCC(=O)OC)c(=O)c2cc3c(cc21)OCO3,18.9
19,Cc1c(N=C(N)/N=C(\N)Nc2ccc(Br)cc2)c(=O)n(-c2ccccc2)n1C,7.51
20,CC1C(=O)N2CCCc3cc(NC(=O)CC(C)(C)C)cc1c32 (centres unmarked),9.89
